First the molecules themselves.
B1: TPR 5TU (parent)
chain: GGAUCUUCUCGAUCUAACAAAAAAGACAAAUCUGCCACAAAGCUUGAGAGCAUCUUCGGAUGCAGAGGCGGCAGCCUUCGGUGGCGCGAUAGCGCCAACGUUCUCAACUAUGACACGCAAAACGCGUGCUCCGUUGAAUGGAGUUUAUCAUG

Variants at the floor of the assay are shown more often than the library holds them.

Variants of B1 are the subject of the data set. In words: polymerase ribozyme fitness, log enrichment relative to wild type (log ratio); higher = more active; in vitro selection for triplet polymerase activity. The method, boiled down:
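Mutant libraries were PCR-built and transcribed for each subunit of a heterodimeric triplet polymerase ribozyme and selected for one round in triplicate at −7 °C, frozen, before gel excision of extended constructs and streptavidin-bead capture. Input and output libraries were Illumina-sequenced, keeping genotypes with ≥10 input reads and ≥1 read per output. Fitness is a logarithmic ratio of genotype to wild-type enrichment, in base 2, using inverse-variance-weighted replicate averages.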
For the variant C5A C14A A29C U56A C95A G126U G136C, the “polymerase ribozyme fitness (log ratio)” value is not above -4.2.

Take A3G C63U A73G G86U U135A: the “polymerase ribozyme fitness (log ratio)” value was -3.75.

For the variant C5A G62A C69A C75G A115G, the “polymerase ribozyme fitness (log ratio)” value is not above -4.2.

For the variant A3U U56A, the “polymerase ribozyme fitness (log ratio)” value was -1.

For A3G C85U, the “polymerase ribozyme fitness (log ratio)” value is -1.05.

As for A3U A12C G48C C57U C93A A115C G141A, the “polymerase ribozyme fitness (log ratio)” value is not above -4.2.

For A3U C14G C32U C51U U55G C63U A73C A89C G143A, the “polymerase ribozyme fitness (log ratio)” value is not above -4.2.

Take A3G A20C U53A G81C A121G: the “polymerase ribozyme fitness (log ratio)” value is -1.59.

As for A3G U7G G46A A47U C51U G94C C125U G143A, the “polymerase ribozyme fitness (log ratio)” value is not above -4.2.

As to A3G A24G C54G C87A G124U, the “polymerase ribozyme fitness (log ratio)” value is not above -4.2.

C5A U77A C87A: the “polymerase ribozyme fitness (log ratio)” value is not above -4.2.

Take U4C C35U A142G U148A: the “polymerase ribozyme fitness (log ratio)” value was not above -4.2.

Consider A3U C87G, for which the “polymerase ribozyme fitness (log ratio)” value was -3.94.

Take U4C A39G G67C C85A G88C A89G G94A U139G: the “polymerase ribozyme fitness (log ratio)” value was not above -4.2.

Regarding A3C U45A C51U C72U A91U, the “polymerase ribozyme fitness (log ratio)” value is not above -4.2.

Regarding A3U A17G A49C C93A U104A A119C C132U G141C U145G, the “polymerase ribozyme fitness (log ratio)” value is not above -4.2.

For U4A G42C U45A G84A C108U, the “polymerase ribozyme fitness (log ratio)” value is not above -4.2.

As for U4G C69G C96U A142C, the “polymerase ribozyme fitness (log ratio)” value is -3.64.

As to C5A A37U A64U U90A C95U C105G C132A, the “polymerase ribozyme fitness (log ratio)” value is not above -4.2.

For the variant A3U A28C, the “polymerase ribozyme fitness (log ratio)” value is not above -4.2.

Turning to U4A G68A C93U C108U C116A U135A G140C, the “polymerase ribozyme fitness (log ratio)” value was not above -4.2.

As for A3G A37G U53G C57U A73G C95G A138G, the “polymerase ribozyme fitness (log ratio)” value was not above -4.2.

With A3G A21C A60G C76A C85G, the “polymerase ribozyme fitness (log ratio)” value was -0.977.

Consider U4C C10U A20C A29U A52C A138C G140U, for which the “polymerase ribozyme fitness (log ratio)” value was not above -4.2.

Consider A3G G71C C96A, for which the “polymerase ribozyme fitness (log ratio)” value was not above -4.2.

As to U4A C10A C85G A115U, the “polymerase ribozyme fitness (log ratio)” value is not above -4.2.

As for U4C C27U G62C C85A A138U, the “polymerase ribozyme fitness (log ratio)” value is not above -4.2.

As for A3G C10A A12G G59U A66G C72G C85U, the “polymerase ribozyme fitness (log ratio)” value is not above -4.2.

With U4C C35G A47C U53A C87U G100C C123U, the “polymerase ribozyme fitness (log ratio)” value was not above -4.2.

In the case of A3U A20G A49C, the “polymerase ribozyme fitness (log ratio)” value is not above -4.2.

On to U4A C8U C10U C51U U55G C99G U148G, for which the “polymerase ribozyme fitness (log ratio)” value is not above -4.2.

Take U4G C8A A28U C43U C96U A115G G141U: the “polymerase ribozyme fitness (log ratio)” value was not above -4.2.

As for A3U C18A A22U A37G C85U, the “polymerase ribozyme fitness (log ratio)” value was -3.29.

Regarding U4C C18G A52G C54U G70A A91C C93A G128U G133C U151C, the “polymerase ribozyme fitness (log ratio)” value was not above -4.2.

With A3U U33A U53A A91U C95G A110C A121G U135C A137U, the “polymerase ribozyme fitness (log ratio)” value is not above -4.2.

For A3G A26U C72U, the “polymerase ribozyme fitness (log ratio)” value is not above -4.2.

A3U A21U G74C U82G C87U A150C: the “polymerase ribozyme fitness (log ratio)” value was not above -4.2.

For A3G G11U A52G G84U A110G, the “polymerase ribozyme fitness (log ratio)” value is not above -4.2.

With A3U C27U A29G G70C C93G, the “polymerase ribozyme fitness (log ratio)” value was not above -4.2.

With U4A C8A A52G C87U A98C, the “polymerase ribozyme fitness (log ratio)” value is not above -4.2.

With U4G A23G C32U G62C G94C G126A G143U, the “polymerase ribozyme fitness (log ratio)” value was -4.05.

As for U4G U6G A22G U55A G67A A122C U127G, the “polymerase ribozyme fitness (log ratio)” value was not above -4.2.

On to A3U U4G C10A C14G U55G C69U A113G, for which the “polymerase ribozyme fitness (log ratio)” value was not above -4.2.

Consider A3U G50A A66G U77A C96G U134G A137C, for which the “polymerase ribozyme fitness (log ratio)” value is not above -4.2.

With U4A C8U C108G G140C, the “polymerase ribozyme fitness (log ratio)” value is not above -4.2.

As for U4A A26G G92A A122C, the “polymerase ribozyme fitness (log ratio)” value was not above -4.2.

In the case of U4G A20U C93G U109A A138G, the “polymerase ribozyme fitness (log ratio)” value is not above -4.2.

On to A3U C43A G84A A106G G140C U148A, for which the “polymerase ribozyme fitness (log ratio)” value was not above -4.2.

Turning to U4G A37U A47C A64G G84U A107U A150G, the “polymerase ribozyme fitness (log ratio)” value was not above -4.2.

Turning to U4G G88U, the “polymerase ribozyme fitness (log ratio)” value is -3.2.

As for A3G A30U G48C C63G G92A C96G C105G C108U, the “polymerase ribozyme fitness (log ratio)” value was not above -4.2.

Turning to U4G A17U C51U A52U C57A C75G G83U G117U G136U, the “polymerase ribozyme fitness (log ratio)” value is not above -4.2.

With A3U C5G U7C A30C C36U U55A A60G C75U C87G U101A A119C C123G G143U, the “polymerase ribozyme fitness (log ratio)” value was not above -4.2.

On to C5A A28G C51G C54A G88C C95G C131A, for which the “polymerase ribozyme fitness (log ratio)” value was not above -4.2.

Regarding C5A G68U G80A C87G C93G, the “polymerase ribozyme fitness (log ratio)” value is not above -4.2.

As for A3G U55A C79G G92U C95U A98G C99U U104G C108U U127C G128A, the “polymerase ribozyme fitness (log ratio)” value is not above -4.2.

Regarding U4A C38U A40U G42U A73G U82C G94U A107G, the “polymerase ribozyme fitness (log ratio)” value was not above -4.2.

For the variant U4G C38U G58A C95U C96U U127C, the “polymerase ribozyme fitness (log ratio)” value was -3.54.

Turning to A3G A12C G62U G70C C79G G81A G84A A147C, the “polymerase ribozyme fitness (log ratio)” value was not above -4.2.

Regarding C5A A19U A24C C54G U56A G86U A122G, the “polymerase ribozyme fitness (log ratio)” value was not above -4.2.

Regarding A3U C36U U56G A60C U61G C79U C93U C99U G112C U144A A150C, the “polymerase ribozyme fitness (log ratio)” value is not above -4.2.

Consider A3G U6A A39U G84U U134A U144C A150U, for which the “polymerase ribozyme fitness (log ratio)” value was not above -4.2.

As for U4A A47C A60U G84U C93U A98U C108U C131A, the “polymerase ribozyme fitness (log ratio)” value is not above -4.2.

For A3U G50C G67A C87U U144C, the “polymerase ribozyme fitness (log ratio)” value is not above -4.2.

Turning to U4G A12C A23U G48U U56G U61A G80C C99U G124A U130G A137G U146C, the “polymerase ribozyme fitness (log ratio)” value was not above -4.2.

For A3G A23U C85A A106U G133U G143U, the “polymerase ribozyme fitness (log ratio)” value was not above -4.2.

As for C5A C35A U61A G81C C95G A106G A107U U139G A147G, the “polymerase ribozyme fitness (log ratio)” value was not above -4.2.

In the case of U4G G50C C69G A73U C85U A91G A115G G143C, the “polymerase ribozyme fitness (log ratio)” value was not above -4.2.

Take U4G C114U: the “polymerase ribozyme fitness (log ratio)” value was -2.01.

Take A3G G34A G86C C87U C125A: the “polymerase ribozyme fitness (log ratio)” value is not above -4.2.

A3U C69G C93U G140U: the “polymerase ribozyme fitness (log ratio)” value was not above -4.2.

As to A3U A26U U82G G92A G126A C132G, the “polymerase ribozyme fitness (log ratio)” value is not above -4.2.

For the variant A3G U9G G48C G141C, the “polymerase ribozyme fitness (log ratio)” value was not above -4.2.

C5A U9C A30C G46A A49C C93U C129G U139A: the “polymerase ribozyme fitness (log ratio)” value is not above -4.2.

For the variant U4A C18U G67A C93G G124A, the “polymerase ribozyme fitness (log ratio)” value is not above -4.2.

In the case of U4C A52C U53A G70C C85A U102G C108A G141U, the “polymerase ribozyme fitness (log ratio)” value is not above -4.2.

On to C5G A12C C36U G50C G58C A91G G124A G140A, for which the “polymerase ribozyme fitness (log ratio)” value is not above -4.2.

With U4A A12C U55A G84U, the “polymerase ribozyme fitness (log ratio)” value was -2.4.

In the case of U4A U9G C75A C85A G94A C95A A110G, the “polymerase ribozyme fitness (log ratio)” value was not above -4.2.

For U4G C18U U31A A41C G50A A52C U56A, the “polymerase ribozyme fitness (log ratio)” value was not above -4.2.

As to A3G A19C G92A A98G, the “polymerase ribozyme fitness (log ratio)” value was -3.18.

For A3G G11A A17G A22C A60U U82C C87U C96U, the “polymerase ribozyme fitness (log ratio)” value is not above -4.2.

With U4C U55A C87G A98U C132A, the “polymerase ribozyme fitness (log ratio)” value was not above -4.2.

Values taken from the RNAGym collection of RNA variant scans (doi:10.1073/pnas.2313332121).
